In the supplement of paper PMC11417369:
The list shows a part of the results.

System: PF3D7_0420300 AP2 domain 1 (GST-tagged)
Experiment: gcPBM binding intensity (ln(normalized median fluorescence intensity)); higher = stronger DNA binding
Method in brief: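 In this array assay, P. falciparum DNA-binding domains with a GST tag, expressed in E. coli, were applied for 1 h to primer-extended double-stranded 36-bp intergenic genomic probes and negative controls on an Agilent 4 × 180k array. Bound protein was visualised with Alexa488 anti-GST antibody at 488 nm. Binding intensity is the highest Masliner-normalised natural-log median intensity across replicate spots of either probe orientation.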

Sequence	gcPBM binding intensity (ln)
CTTTAAACCCTGAACACACACAAATACAGACAAAAA [CACACA_site247]	9.84
ACATCTAATTTGTATACACACAATAATAAATGGTGA [CACACA_site824]	9.33
TTGTATATATGACTTTTTTATATTTCAATTTTGTGC [CACACA_negctrl_site296]	9.18
TATATATATTTATAATGTACATATTTTTTTTTATTT [XGTACX_site4761]	9.27
TATTAATTTTTAAACATAATTTTTCGTATAATATAT [CACACA_negctrl_site762]	8.97
GAGATAAAATAAAACACACACATATATTTATATAAC [CACACA_site7098]	10
TTTACTTTCTTATTTTCACACATTTAAAAAAAAATT [CACACA_site5949]	9.15
TATGGAAGAAAATATACACACAAAAAAAAAAAATGT [CACACA_site1486]	10
AATTTATTATTTGTATGTACTCATATGATTCACTTA [XGTACX_site2797]	9.31
ATACTTTTATTTTTGGTGCATATATCATGTAGACGT	9.28
AAATGAAATAAATGTAGTACACATATACAATATATA [XGTACX_site6951]	9.39
TATTTTTATACAATTTAACACGGGTTATAAAATGTA [CACACA_negctrl_site566]	9.02
TGTATATCATATATTTGTACTCAATTAATATAAACA [XGTACX_site3970]	9.19
TTTTTTTTTTTTGTCACACATATTTGTATTAATCAT [CACACA_site5235]	9.19
CAACATTTGAAACACACACACATACAAACAAACAAA [CACACA_site3306]	10.2
AATATTAACAATCGCACACATATTATTTTTCCAAAA [CACACA_site4982]	9.37
TGAAATGGAAACAACTGTACAAAATAAATATGATAT [XGTACX_site1311]	9.53
ATATAAATATAGCATACACACAAAAAAATAAAATAA [CACACA_site2333]	9.85
TTCCCTTTTGTAAAATGTACATATATATTTAAACAA [XGTACX_site3263]	8.98
TTTTTATTAAAATGTATTTTAGGAAAAAACAAAAAA [XGTACX_negctrl_site437]	8.82
TAAGTTCCCTTTGAATGTACATATAATGAAAAGAAA [XGTACX_site826]	9.01
AAAAAACTTTTAAGCACACACATAGATAATATAGAT [CACACA_site6835]	9.83
AATGTAAAATATATGTGTACATATGTTTATATATAT [XGTACX_site2216]	9.23
AAATGTGTTTATTTAACACACAAAAGAAAAAATATA [CACACA_site6993]	9.59
GTGTGTTGTATATACTGTACATACTTTATATATAGT [XGTACX_site1876]	9.72
TATAACAAGTAATGTTGTACATTGTATTATGTAATA [XGTACX_site6372]	9.07

Sequence	gcPBM binding intensity (ln)
TTACTCATGAAAGATACACACATTCATTATATATAT [CACACA_site3252]	9.48
AGACATAAGATAATTACACACAATACATCCCTATAT [CACACA_site2227]	9.88
AATAAAAATTTACTTTGTACACATATTAAATTCAAT [XGTACX_site1957]	9.08
TACTTCTACAAGAGAAGTACAATATTTTTTATATTA [XGTACX_site8351]	8.9
AAATTTACAATACATTGTACATATTAATAATATTCC [XGTACX_site3646]	9.17
TGTAGTTTGTCCCATGCATGTTCCATTAAAATATAT [TGCATGCA_site854]	9.67
TTAACGTAAAATATAGTGCATAGTATCATATTGATA [GTGCAC_site9527]	9.17
CAATCAAAGAAACACACACACACCTAAACATAAAAG [CACACA_site2756]	10.2
AATGTATATATGTAATGTACATATATAATGTATATA [XGTACX_site6510]	9.19
AAAATCAAGTAGTATAAAGTAAGTATCATAAAAATA [CACACA_negctrl_site1554]	9.36
ATAATAAAATGGAGAGTGCATACATGTTTATTTTAT	9.48
GTACACTAATTATGTGCACACAAATTAAAGGTCTAC [CACACA_site146]	9.57
AGATATATTATTAGGTGTACTATAAAATAAATTCAC [XGTACX_site221]	9.24
CGAACAAACAAATAAACACACAAAAAAAGATATATA [CACACA_site6944]	9.72
AAAAAAAATTAGGAAACATGCATGTCCCGATAAATA [TGCATGCA_site149]	9.29
AGGGAATAATATTAATGTACATATATGAACTTGTTT [XGTACX_site6089]	9.43
TCTTTTAAAAATTAAGTGCATGTCCTTATAACAAAA	8.88
TATAAAAAGGAAAAATAAAAATAAAAATAAAAATTA [CACACA_negctrl_site1822]	9.18
AAAAAAATAATGTACACACACATATCTGTTTATATA [CACACA_site4270]	9.73
ATATTTATATATATATGTACATATGTGTGTTTTTAT [XGTACX_site3956]	9.61
ATATATAACTTTTCTTAACACACAAAAAACAAAAAT [CACACA_site8748]	9.56
TCATAAACATTATGCACACAAAAATAAAAAAAAATA [CACACA_site1115]	9.56
ATAAAATATATATGCACACACATATATATTTCATAC [CACACA_site3547]	9.61
ACATAAAATAAATATACACACATATGTATATATTAT [CACACA_site3041]	9.52
ATATATATATATATGTGTACTTATAAATATATCTGT [XGTACX_site4337]	9.32
AAAAGAATTTAGAAGGCATGCACTTAAACATGGATA [TGCATGCA_site699]	9.32

Sequence	gcPBM binding intensity (ln)
TAAATATTTTATTGTACACACTTTTTATGAATGATG [CACACA_site5694]	9.36
AATATTTAAAACAAATCACACATGTATCCATAAATG [CACACA_site5308]	9.37
ATATCCCATATGTAATGTACTTACACTTTCTTAATT [XGTACX_site7020]	9.5
ATAATTTATATTCAGAAACACACGAAAAAAAAAAAT [CACACA_site1296]	9.64
AACTAAACAAAAGTTACACACATCATACGATATTAT [CACACA_site3180]	9.49
ACCATATAATTTTTTTGTACATAATGATTTTTTTTT [XGTACX_site1104]	9.46
TATATTATATACGTCTGTACACAAATGAGAGGTAAA [XGTACX_site5538]	9.25
ATGTTAAGAATAATTAGTACTTACATATGTATAATA [XGTACX_site4419]	9.13
TTATAAAAAAAAAAAAAAAATATATATATATATATA [XGTACX_negctrl_site592]	8.78
AATAATATATATTGTACACACAAAATGGGAAAAAAA [CACACA_site5100]	9.73
AAAAAATAATAATAAAATGAATAGATATGTATTTAT [TGCATGCA_negctrl_site210]	9.37
AACATATTATCTTGTGAAAATAATATAAGTCACATT [TGCATGCA_negctrl_site339]	9.25
AGCAGAGTTACAATTTGTACGTAATTGATATAGATA [XGTACX_site4051]	9.07
ATATATATATATATTTGTACAGAAAATATTTTAATA [XGTACX_site3706]	9.15
ACAAAATGTAAATAAACACACATATATATATATATA [CACACA_site1281]	9.3
AAGAAAAACTTTACGTGTACCAAACATCCTGCCGAC [XGTACX_site4895]	9.59
TAAACCTTAAAATATTTCTCATGTTTAACTTATATT [GTGCAC_negctrl_site233]	9.32
AAAAAATAATTGAAGTGTACGTACAATGATTTTACT [XGTACX_site7663]	9.35
GTATTCTACAGACACATACACACATATATATATATA [CACACA_site3427]	9.7
TTATAATATTGTGGTATACACACCTTACAAAAAGGT [CACACA_site2878]	9.32
GGGAGAAATTTATACATACACACATATATATATTAT [CACACA_site4039]	9.62
TGTTCTGAACGGTTCATGCACTTTTTTTTGTTAATT	9.43
CTGTTTTTGTTTTAAAGTACATTGTTCAATATACAT [XGTACX_site5288]	9.38
TTTATTTTCATATGAACACACATATATATATTATAA [CACACA_site2369]	9.26
TTATATACCCTAATATGTTTTATTATTATTATATAT [TGCATGCA_negctrl_site6]	9.53
TATATTCTACAAGAATTATGAATTGTCAGACCAAAT [CACACA_negctrl_site1101]	8.98

Sequence	gcPBM binding intensity (ln)
TACAATGTGGATAATTGTACAAAACCGATAAGAGGG [XGTACX_site6453]	9.54
ATATAAATAATATAAATACACACTAAAAAAAATATA [CACACA_site542]	9.69
ATATTTACCATTGTATGTACATATATAAAATATATC [XGTACX_site3237]	9.27
GTATATATATATATATGTACATATTTAGAGTTCTGT [XGTACX_site5357]	9.29
AACATATACACGAACACACACACATATATATATATA [CACACA_site502]	10.1
AAAACAAATGAGTACACACACATAAAAATTGAAAAT [CACACA_site199]	10
TAAAGAAAAAAATGTTGTACTTTATGAAACATATTT [XGTACX_site412]	9.07
AGTTTTTATTAAAACAAAATTTAATTATAACGTTGA [XGTACX_negctrl_site298]	8.83
CGTAGCCCCACTAACACACACAAATATACTCAATCA [CACACA_site5587]	9.6
TATATATATATATACACACATACATATATATATTTG [CACACA_site857]	9.44
TTATATGTATGAACAAGTACATGCTATAATTATAAA [XGTACX_site1399]	9.03
ATATATATATATATATGTACATATATACATATATGT [XGTACX_site1521]	9.11
TTTTTTTTTTTTTGATGTACAATAATTAAAGAGTAA [XGTACX_site8403]	8.8
AGTAGTCTGGAGAAGAGTACATAGTTTCTGGTAGCT [XGTACX_site2023]	9.2
AATAACTATATATGTGTGCACAAAAATTTGACATAA	9.62
TGCTTATCCATTTCTACACACAAAAAAAAAAAAAAA [CACACA_site37]	9.24
TTATATTATAACAAACGTACGAATTTTATACAAATA [XGTACX_site7258]	9.2
AAATGGGTTTATTTAACACACAAAAGAAAAAATATA [CACACA_site1938]	9.53
TATATATATTTATGTTGTACAAAATATTATTACGTA [XGTACX_site5384]	9.04
TATTTTTACAATGGTAGTACCATTTTGAATCTTTGT [XGTACX_site6092]	9.18
CACCCGCACGTATTTGCACACATTGCCACGTAATTA [CACACA_site5786]	9.71
ACACTATCTTAGATTTGTACATATTTATATATGTAT [XGTACX_site8739]	9.42
TCGGTATCTGTTCAAAGTACACATTTGTATACAAAA [XGTACX_site1890]	9.26
TATATAACATATGGGACACACATGCAACTGTTATAT [CACACA_site3792]	9.61
AAAAATATTATGATGTTTATTAGAAAGGAAAAAACT [CACACA_negctrl_site1417]	9.24
ATGTGATGTTATATATGTACTTATTTTTTAATAAGG [XGTACX_site1786]	9.25
